In PubChem BioAssay AID2546 (National Center for Advancing Translational Sciences (NCATS), 2010):
The whole screen tested about 310,000 compounds, of which about 11,000 (3.5%) were called active. This list was built around the results that the source calls inconclusive (neither active nor inactive); the mix of calls is not that of the screen. Calls come from the whole dose curve; as a rule, active = well fitted inhibition curve with a large enough effect; inconclusive = small, poorly fitted or top-dose-only effect, or effect the other way; inactive = flat fitted curve, though single readings scatter. Potencies of inconclusive entries are left out as doubtful fits.

Assay: VP16 counterscreen qHTS for inhibitors of ROR gamma transcriptional activity;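 note: Gal4-VP16 expression switched on by copper sulfate through the metallothionein promoter; nearly all actives have a fitted effect of over 50% in size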
Settings: Drosophila S2 Gal4-VP16 UAS-luciferase, luminescence, 20 h; activity, negative = inhibition: at 53.6 µM (top of the series)
% is set by controls: 0 for no effect and ±100 for the full control effect; potency is the fitted concentration of half-maximal effect; tags give direction and shape of the fitted curve.

| Structure (SMILES) | Potency | activity, negative = inhibition |
| --- | --- | --- |
| S=c1[nH]nc(-c2cc(-c3ccccc3)n[nH]2)n1/N=C/c1ccc(Br)s1 | inconclusive [inhibitor, partial curve] |  |
| Cc1cccc(/C=N/n2c(-c3ccncc3)n[nH]c2=S)c1 | inconclusive [inhibitor, single point] |  |
| COc1ccc(NS(=O)(=O)c2cc(NC(=O)c3ccncc3)ccc2N2CCOCC2)cc1 |  | inactive: 4.23% |
| NS(=O)(=O)c1ccc(NC(=S)Nc2nn(Cc3ccc(Cl)cc3Cl)cc2Cl)cc1 | active: 6.31 µM |  |
| COc1ccccc1/C=C/C=N/NC(=O)c1ccccn1 | inconclusive [activator, single point] |  |
| CC(=O)OCCN1C(=O)c2c(C)nc3ccc(S(=O)(=O)N4CCOCC4)cc3c2C1=O |  | inactive: 5.1% |
| O=C(NC(=S)N(CCCCO)C1CCCCC1)c1sc2ccccc2c1Cl | active: 0.891 µM |  |
| COc1ccccc1NS(=O)(=O)c1cc(NC(=S)Nc2cc(C)cc(C)c2)ccc1Cl | inconclusive [inhibitor, single point] |  |
| CCCOc1cccc(-c2cc(C(=O)NN)c3ccccc3n2)c1 | inconclusive [inhibitor, single point] |  |
| CC1Sc2ccc(S(=O)(=O)CCC(=O)N3CCN(c4ccccc4F)CC3)cc2NC1=O (stereo not given) | inconclusive [inhibitor, single point] |  |
| Cc1cc(C)n(CCc2nc(-c3cccs3)cs2)n1 |  | inactive: -2.6% |
| CC(C)CC(=O)Nc1ccc(Oc2ccc3c(c2)C(=O)NC3=O)cc1 |  | inactive: -7.34% |
| COc1ccc(CNC(NC(=O)c2ccccc2)(C(F)(F)F)C(F)(F)F)cc1 | active: 10 µM |  |
| O=S(=O)(Cc1ccco1)Cc1nc(-c2ccc(Cl)cc2)cs1 | inconclusive [inhibitor, single point] |  |
| CN(C)CCNCc1ccccc1OC1CCCC1 |  | inactive: 2.89% |
| CCCNC(=S)Nc1ccc(Br)cc1 | inconclusive [inhibitor, single point] |  |
| NS(=O)(=O)c1ccc(CCNC(=O)CC(c2ccccc2)c2ccccc2)cc1 | inconclusive [inhibitor, single point] |  |
| CCOC(=O)c1ccc(NC(=S)NNC(=O)c2cc(-c3cccnc3)nc3ccccc23)cc1 |  | inactive: -13.4% |
| CCCNC(=O)c1ccc(COc2cccc3ccccc23)o1 | inconclusive [inhibitor, single point] |  |
| Cc1ccccc1Nc1cccc2nonc12 | inconclusive [inhibitor, single point] |  |
| Cc1noc(C)c1COc1ccc(C(=O)NCCc2ccccn2)cc1 | inconclusive [activator, partial curve, poor fit] |  |
| Cc1ccc(S(=O)(=O)Cn2nnnc2CN2CCN(Cc3ccc4c(c3)OCO4)CC2)cc1 | inconclusive [inhibitor, single point] |  |
| CCOC(=O)/C(C#N)=C/c1ccc(OC(=O)c2ccccn2)cc1 | inconclusive [activator, partial curve] |  |
| Fc1ccc(Oc2nccc(-c3ccc(Cl)cc3)n2)cc1 | inconclusive [inhibitor, partial curve, poor fit] |  |
| C/C(=N\NC(=S)Nc1ccc(C)c(C)c1)c1ccc(N2CCOCC2)cc1 | inconclusive [inhibitor, single point] |  |

| Structure (SMILES) | Potency | activity, negative = inhibition |
| --- | --- | --- |
| CCCOc1c(Br)cc(C2C3=C(CCCC3=O)N(CC)C3=C2C(=O)CCC3)cc1OC |  | inactive: 3.62% |
| COc1ccc(CC(=O)NNc2ncnc3c2cnn3-c2ccc(C)cc2)cc1OC | inconclusive [inhibitor, full curve] |  |
| O=[N+]([O-])c1ccc(N(CCO)Cc2ccccc2)c([N+](=O)[O-])c1 |  | inactive: -0.982% |
| COc1ccc(N(Cc2cc3ccc(C)cc3[nH]c2=O)S(=O)(=O)c2ccccc2)cc1 | inconclusive [inhibitor, single point] |  |
| O=C(CSCc1nc2ccccc2[nH]1)N1CCN(c2cccc(Cl)c2)CC1 | inconclusive [inhibitor, single point] |  |
| CCN(CC)CCNC(=O)c1nn(-c2ccc(C)cc2)c(=O)c2c1c1ccccc1n2C |  | inactive: 2.4% |
| C=CCN1C(=O)N(c2ccccc2)C(=O)C1CC(=O)Nc1ccc(OC)cc1 (stereo not given) |  | inactive: 5.34% |
| COCCCn1c(SCc2cccc(OC)c2)nc2cc(OC)c(OC)cc2c1=N | inconclusive [inhibitor, single point] |  |
| COc1cccc(NC(=S)N(CCc2c(C)[nH]c3ccccc23)Cc2cccs2)c1 | inconclusive [inhibitor, single point] |  |
| CSc1ccccc1NC(=O)c1ccc(N2CC3CC(C2)c2cccc(=O)n2C3)c(NC(=O)c2cccnc2)c1 (stereo not given) |  | inactive: -8.09% |
| CC1C(O)=C(c2nc3ccccc3[nH]2)C(=N)N1c1ccccc1 (stereo not given) | inconclusive [inhibitor, single point] |  |
| COc1ccc(C(=O)NC(=S)Nc2ccc(Cc3ccncc3)cc2)cc1 | inconclusive [inhibitor, single point] |  |
| CC(C)CNC(=S)NC(=O)c1ccc([N+](=O)[O-])cc1 | active: 14.1 µM |  |
| COc1ccc(C(=O)Nc2nnc(S(=O)(=O)N(C)Cc3ccccc3)s2)cc1 |  | inactive: 4.57% |
| CCOc1cc(CNCCCN2CCOCC2)cc(Br)c1OCC(=O)Nc1cccc(C(F)(F)F)c1 | inconclusive [inhibitor, single point] |  |
| Cc1ccc(NC(=O)CSc2nc3ccc(Nc4nc(N5CCOCC5)nc(N5CCOCC5)n4)cc3s2)cc1 |  | inactive: 1.15% |
| O=C(CCCN1C(=O)/C(=C/c2ccccc2Cl)SC1=S)Nc1ccccn1 | inconclusive [inhibitor, partial curve, poor fit] |  |
| O=C(Nc1cccc(F)c1)N1CC[C@@]2(CCCN(C(=O)c3ccco3)C2)C1 |  | inactive: 6.29% |
| COC(=O)c1ccc(Nc2cc(C)nc3ccccc23)cc1 | inconclusive [inhibitor, partial curve] |  |
| Cc1cc(C)cc(NC(=S)NC(=O)C2CC2)c1 | active: 6.31 µM |  |
| CC1CCCN(C(c2cccs2)c2nnnn2Cc2ccccc2)C1 (stereo not given) |  | inactive: 1.42% |
| CN(C)CCCN(C(=O)c1cc(-c2cccs2)nc2ccccc12)c1nc2ccc(F)cc2s1 | inconclusive [inhibitor, partial curve] |  |
| CC1(C)CC(=O)C=C(NC2=CC3OC(c4ccccc4)OCC3OC2=O)C1 (stereo not given) | active: 11.2 µM |  |
| O=C(Nc1ccc(-c2nc3cccnc3s2)cc1)C1CCCO1 (stereo not given) | active: 11.2 µM |  |
| CN(CCc1ccccn1)C(=O)CCC1CCCN(C(=O)NC2CCCCC2)C1 (stereo not given) | inconclusive [activator, partial curve] |  |

| Structure (SMILES) | Potency | activity, negative = inhibition |
| --- | --- | --- |
| CC(Oc1ccccc1Cl)C(=O)Nc1ccccc1C(=O)N1CCOCC1 (stereo not given) |  | inactive: 3.75% |
| CCOC(=O)C1CN(S(=O)(=O)c2ccc(C)cc2)c2ccccc2O1 (stereo not given) |  | inactive: 1.94% |
| Cc1ccc(C(=O)NC(=S)N(C)C2CCCCC2)cc1 | active: 3.16 µM |  |
| N#C/C(=N\Nc1cc(Cl)cc(Cl)c1)c1nnc2n1CCCCC2 | active: 6.31 µM |  |
| CC(Oc1ccc(Cl)cc1Cl)C(=O)NC(=S)N1CCc2ccccc21 (stereo not given) | active: 0.891 µM |  |
| Cc1cc(Br)ccc1N=C1NC(=O)CS1 |  | inactive: 0.932% |
| C=CCn1c(CCn2c3ccccc3c3ccccc32)n[nH]c1=S | active: 3.16 µM |  |
| CCc1ccccc1NC(=O)C(CC)Sc1nc2cc3c(cc2c(=O)n1Cc1ccco1)OCO3 (stereo not given) |  | inactive: 7.26% |
| CSc1ccccc1NC(=O)COC(=O)c1ccccc1Cc1ccccc1 |  | inactive: 3.29% |
| COCCC1CCCCN1C(=O)c1ccc(OC2CCN(C(C)=O)CC2)c(OC)c1 (stereo not given) |  | inactive: -7.52% |
| Cc1cc2oc(=O)cc(CN3CCCCC3C)c2cc1C(C)C (stereo not given) |  | inactive: 5.49% |
| O=C(N/N=C/C=C/c1ccc([N+](=O)[O-])cc1)C1COc2ccccc2O1 (stereo not given) | active: 11.2 µM |  |
| Cc1cc(=O)oc2cc(OCC(=O)N3CCN(c4ccccc4)CC3)c(Cl)cc12 | inconclusive [inhibitor, single point] |  |
| N/C(=C\C(=O)c1cc(Cl)ccc1O)C(Cl)(Cl)Cl | inconclusive [inhibitor, single point] |  |
| CC(C)(C)c1ccc(OCC(=O)N(c2ccccn2)C2CCCCC2)cc1 | inconclusive [inhibitor, single point] |  |
| Cc1ccc(C(=O)Nc2ncc(C)s2)s1 | inconclusive [inhibitor, single point] |  |
| O=C(C1CCCCC1)N1CCN(c2ccnc3cc(Cl)ccc23)CC1 | inconclusive [inhibitor, single point] |  |
| O=C(Nc1nc2ccccc2s1)c1ccc(OCC2CCCO2)cc1 (stereo not given) | inconclusive [inhibitor, single point] |  |
| Nc1ccc(-c2nc3cc(N)ccc3o2)cc1 | inconclusive [inhibitor, single point] |  |
| Clc1ccccc1-c1nc(-c2ccccc2)n[nH]1 | inconclusive [inhibitor, full curve] |  |
| CC(C)CCOc1ccc(C2CC(=O)N(C)C2=O)cc1 (stereo not given) | inconclusive [activator, single point] |  |
| CC(=O)Nc1nnc(-c2ccc3c(c2)CCCC3)o1 | active: 3.55 µM |  |
| CCN(CC)c1ccc(C(=O)n2cnc3ccccc32)cc1 | inconclusive [inhibitor, single point] |  |
| Cc1c(Cl)cccc1NC(=S)NCCC(C)C | active: 6.31 µM |  |
| CCOC(=O)c1ccc(-n2c(O)c(/C=N/NC(=O)C3COc4ccccc4O3)c3ccccc3c2=O)cc1 (stereo not given) | active: 2.82 µM |  |
